Test results: PubChem BioAssay AID1345083 (National Center for Advancing Translational Sciences (NCATS), 2018)
Hit rate of the full screen: of about 94,000 compounds, about 6,200 (6.6%) were called active. The shares of active, inactive and inconclusive entries below differ from those in the screen. Calls come from the whole dose curve; as a rule, active = well fitted inhibition curve with a large enough effect; inconclusive = small, poorly fitted or top-dose-only effect; inactive = flat fitted curve, though single readings scatter. A potency beside an inconclusive call is a rough fit, not a confirmed value.

test: Cytotoxic Profiling in HEK 293 Cell Line of Diverse Libraries Using Quantitative High-Throughput Screening; settings: HEK 293 viability, ATP luminescence (CellTiter-Glo), 48-72 h; activity change, negative = cytotoxicity: at 115 µM (top of the series) unless noted; series mostly up to 115 µM; note: nearly all actives have a fitted effect of over 60% in size
Summary of the method: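 CellTiter-Glo luminescence (cellular ATP) was read after 48 or 72 hr of compound exposure at 37 degree Celsius. Cells were HEK 293 plated at 250 cells/well.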
% is set by controls: 0 for no effect and ±100 for the full control effect; potency is the fitted concentration of half-maximal effect; tags give direction and shape of the fitted curve.

SMILES	activity change, negative = cytotoxicity	Potency	outcome
O=C(NC1CC1)c1ccc(CC2CCN(C(=O)C3CCOC3)CC2)cc1 (centres undefined)	inactive: -11.7%	–	–
COc1ccc(CCC(=O)N2CCC(Cc3nc(-c4ccc(F)cc4)no3)CC2)cc1	–	inconclusive: 31.6 µM [inhibitor, partial curve, poor fit]	–
CSCc1noc(CN2CCCC(CO)(CC=C(C)C)C2)n1 (centres undefined)	–	inconclusive: 100 µM [inhibitor, single point]	–
Cc1cc(C)cc(C(=O)N2CCCC(n3cc(-c4nc(C(C)C)no4)nn3)C2)c1 (centres undefined)	–	inconclusive: 50.1 µM [inhibitor, partial curve, poor fit]	–
COc1ccc(C(=O)N2CCC3(C2)C(=O)Nc2ccccc23)cc1 (centres undefined)	inactive: -0.946%	–	–
O=C(c1ccc2[nH]ncc2c1)N1CCOCC12CCN(Cc1ccccc1Cl)CC2	–	inconclusive: 100 µM [inhibitor, partial curve]	–
Fc1ccc(CN2CC(Oc3ccc(F)cc3F)C2)cc1	inactive: -5.88%	–	–
CCc1cn(C[C@H](NCCC(C)C)C(=O)O)c(=O)[nH]c1=O	–	–	inactive [at 172 µM]
O=C(NCc1ccc(F)c(F)c1)C1CCC(=O)N(CC2CCCCC2)C1 (centres undefined)	–	inconclusive: 22.4 µM [inhibitor, full curve, poor fit]	–
CCOC(=O)C1(Cc2ccccc2C(F)(F)F)CCN(C(C)Cc2cccc(C)n2)CC1 (centres undefined)	–	active: 12.6 µM	–
O=C(c1ccoc1)N1CC[C@@H]2[C@@H](CCC(=O)N2CCc2cnc[nH]2)C1	–	–	inactive
CCn1cc(S(=O)(=O)N2CCCC(Cc3ncc(C)n3CC3CC3)C2)cn1 (centres undefined)	inactive: -29.4%	–	–
O=C1Nc2ccc(Br)cc2C(=O)N2CCN(C(=O)c3cccc(F)c3)C[C@H]12	–	inconclusive: 20 µM [inhibitor, partial curve, poor fit]	–
CC(C)n1c(CNC(=O)CC[C@H]2NC(=O)c3ccccc3NC2=O)nc2ccccc21	–	inconclusive: 89.1 µM [inhibitor, single point]	–
O=C(CCn1cncn1)N1CCOC(CC(c2ccccc2)c2ccccc2)C1 (centres undefined)	–	inconclusive: 89.1 µM [inhibitor, single point]	–
Cc1cn2nc(C(=O)Nc3ccc(N(C)C)cc3)cc2c(N(C)Cc2ccccc2)n1	–	inconclusive: 50.1 µM [inhibitor, partial curve, poor fit]	–
O=C(O)CCC(=O)N1Cc2ccccc2CC2(CCCCN2CC2CCOCC2)C1 (centres undefined)	inactive: -3.77%	–	–
Cc1nc2c(c(=O)n1C)CN(C(=O)[C@H]1CNC[C@H](C(=O)N3CCCC3)C1)C2	inactive: -3.52%	–	–
COC(=O)N1CCN(c2nccc(Nc3ccc(OC)cc3)n2)CC1	–	inconclusive: 79.4 µM [inhibitor, partial curve, poor fit]	–
